In the RNAGym collection of RNA variant scans (doi:10.7554/elife.90254):
The source gives no read counts; variants with many changes may rest on few reads.

B1: LINE1-mini (parent)
chain: GGCAGAGCUCAACACAGCGUGGCAAAGUGGCUGUGGCUAGACUGCC

Variants of: B1
Assay: self-cleavage, relative activity (ratio to wild type); higher = more cleavage; in vitro, sequencing; the parent is a self-cleaving ribozyme

Row | Variant | self-cleavage
1 | GGCAGAGCUCAACACAUCGUGGCAAAGAGGCUGUGACUAGACUGCA [G17U U28A G36A C46A] | 0.03
2 | GGCAGAGCUCAACACAGAGUGCCAAAGUUGAUGUGGCUAGACCGCC [C18A G22C G29U C31A U43C] | 0.02
3 | GGCAGAGCUCAACACAGAGUGGCAAAGUGGCUGUGGCUAGACUGUA [C18A C45U C46A] | 0.1
4 | GGCAGAGCUCAACACAUCGAGGCAAAGUGGCUGUGGCUAGAGUGCC [G17U U20A C42G] | 0.01
5 | GGCAGAGCUCAACACAGAGUGGCUAAGUGGCUGUGGCUAGACAGCC [C18A A24U U43A] | 0.03
6 | GGCAGAGCUCAACACAUCGAGGCCAAGUUGCUGUGACUAGACUGCU [G17U U20A A24C G29U G36A C46U] | 0.02
7 | GGCAGAGCUCAACACAGAGUUGCAAAGGGGCGGUGGCUAGACUGCC [C18A G21U U28G U32G] | 0
8 | GGCAGAGCUCAACACAGAGUGGCAAAGUGGCUGUGGCUCUACUGCG [C18A A39C G40U C46G] | 0.02
9 | GGCAGAGCUCAACACAGAUUGGCAAAGUGGCUGUGGCUAUACGGCC [C18A G19U G40U U43G] | 0.18
10 | GGCAGAGCUCAACACAGAGUGCCAAAGUGGGUGUGGCUAGACUGCC [C18A G22C C31G] | 0.03
11 | GGCAGAGCUCAACACAGAGUGACAAAUUGGCUUUGGCUAGACUGCC [C18A G22A G27U G33U] | 0.05
12 | GGCAGAGCUCAACACAGAGUAGCAAAGUGGUUGUGGCUAAACUGCC [C18A G21A C31U G40A] | 0
13 | GGCAGAGCUCAACACAGAGUGGCAGAGUGACUGUGGCUAGACUGCA [C18A A25G G30A C46A] | 0.15
14 | GGCAGAGCUCAACACAUCGUGGCAAAGGGGCUGUGGUUAGACUGCC [G17U U28G C37U] | 0.1
15 | GGCAGAGCUCAACACAGAGUGGAAAAGUGGCUGUGCCUAGACUUCC [C18A C23A G36C G44U] | 0.02
16 | GGCAGAGCUCAACACAUCGUGGCAAAGAGGCUGUGGAUAGACUGCC [G17U U28A C37A] | 0.04
17 | GGCAGAGCUCAACACAGAGUGGCAUAGUGGCUGUGGCUCGACUGCC [C18A A25U A39C] | 0
18 | GGCAGAGCUCAACACAGACUGGCAAAGUGGCUGUGUCUAGACUGCC [C18A G19C G36U] | 0.06
19 | GGCAGAGCUCAACACAGAGUGGGAAAGUGGCUGUGGCUAGACUUCC [C18A C23G G44U] | 0.09

Row | Variant | self-cleavage
20 | GGCAGAGCUCAACACAGAGUGGCCAACUGGCUGUGGCUAGACUGCC [C18A A24C G27C] | 0.05
21 | GGCAGAGCUCAACACAUCGAGGCAAAGCGGCUGUGGCUAGACUGUC [G17U U20A U28C C45U] | 0.14
22 | GGCAGAGCUCAACACAGAGUAGCAAAGUGGCUGUGGCUAGGCUGCC [C18A G21A A41G] | 0.25
23 | GGCAGAGCUCAACACAUCGUGGCAAAGUGGCUGUGGCAAGACGGCC [G17U U38A U43G] | 0
24 | GGCAGAGCUCAACACAGAGUGGCAGAGUGACUGUGGCUAGACUGCC [C18A A25G G30A] | 0.09
25 | GGCAGAGCUCAACACAUCGUGGCAAAGAGGCUGUAGCUAGGCUGCC [G17U U28A G35A A41G] | 0.05
26 | GGCAGAGCUCAACACAUCGGGACAAAGUUGCCGUGGCUAGACCGCC [G17U U20G G22A G29U U32C U43C] | 0.02
27 | GGCAGAGCUCAACACAGAGUGCCAAAGUGGCCCCGGCUAGACUGCC [C18A G22C U32C G33C U34C] | 0.03
28 | GGCAGAGCUCAACACAUCGAGGCAAAGUGUCUGUGGCUAGACUGCG [G17U U20A G30U C46G] | 0.11
29 | GGCAGAGCUCAACACAGAGUCGCAAAGUGGCUGUGCCUAGACUCCC [C18A G21C G36C G44C] | 0.05
30 | GGCAGAGCUCAACACAGAGUGGCUAAGUGGCUUUGCCUAGACUGCC [C18A A24U G33U G36C] | 0.02
31 | GGCAGAGCUCAACACAGACUGGCAAAGUGCCUGUGGCUAGACUGCC [C18A G19C G30C] | 1.15
32 | GGCAGAGCUCAACACAUCGUGGCAAAGUGGCGGUGGCUAGAUUGCC [G17U U32G C42U] | 0.04
33 | GGCAGAGCUCAACACAUCGCGGCAAGGUGGCUGUUGCUAGACUGUC [G17U U20C A26G G35U C45U] | 0.02
34 | GGCAGAGCUCAACACAUCGCGGCAAAGUGGCUGUGGCUAGAGUGCC [G17U U20C C42G] | 0.04
35 | GGCAGAGCUCAACACAUCGGGGCUAAGCGGCUGUGGAUAGACUGGC [G17U U20G A24U U28C C37A C45G] | 0.02
36 | GGCAGAGCUCAACACAUCGUGGCAAAGUGGCGGUAGCUAGACUGCC [G17U U32G G35A] | 0.46
37 | GGCAGAGCUCAACACAUCGCGGCAGAGUGGCUGUGGCUAGACUGCC [G17U U20C A25G] | 0.25
38 | GGCAGAGCUCAACACAGAGUGUCAAAGUGGCUAUGGCUACUCUGCC [C18A G22U G33A G40C A41U] | 0.06

Row | Variant | self-cleavage
39 | GGCAGAGCUCAACACAUCGUGGCAAAGUGGCUGUGUCUAGACUCCC [G17U G36U G44C] | 0.06
40 | GGCAGAGCUCAACACAGAUUGGCGAAGUGGAUGUGGCUAGACUGCC [C18A G19U A24G C31A] | 0.35
41 | GGCAGAGCUCAACACAUCGUGGCAAAGGGGCUGUGUCUAGACUGCC [G17U U28G G36U] | 0.01
42 | GGCAGAGCUCAACACAUCGUGGCAAAGUGGCUGUGGCGACACUGCC [G17U U38G G40C] | 0.02
43 | GGCAGAGCUCAACACAGAGUGCCAAAGUGGCUGUGGCUAGACUCCC [C18A G22C G44C] | 0.13
44 | GGCAGAGCUCAACACAGAUUAGCAAAGUGGCUUUGGCUAGACUGCC [C18A G19U G21A G33U] | 0.01
45 | GGCAGAGCUCAACACAGAGUGGCAAUGUGGCUGUGGCGAGACUGCC [C18A A26U U38G] | 0.01
46 | GGCAGAGCUCAACACAUCGGGGCAGAGUGGCUGUGGAUAGACUGCC [G17U U20G A25G C37A] | 0.02
47 | GGCAGAGCUCAACACAUCGUGGCAAAGUGGCUGCGGUUAGACUGCC [G17U U34C C37U] | 0.07
48 | GGCAGAGCUCAACACAGAGUGGAAAAGUGGCUAAGGCUGGACUGCC [C18A C23A G33A U34A A39G] | 0.01
49 | GGCAGAGCUCAACACAUCGUGGCAAAGUGGCUGUGGCGAGACUGCU [G17U U38G C46U] | 0.01
50 | GGCAGAGCUCAACACAGACUGUCAAAGUGGCUGCGGCUAGACUGCC [C18A G19C G22U U34C] | 0.06
51 | GGCAGAGCUCAACACAUCGAGGCAAAGUGGCUGUGGCUAGACAGAC [G17U U20A U43A C45A] | 0.02
52 | GGCAGAGCUCAACACAGAGUUGCAAAGUUGCUGUGGCUAGACUGCC [C18A G21U G29U] | 1.96
53 | GGCAGAGCUCAACACAGAGUGGCUAAGCGGCUGUGGCAAAACUGCG [C18A A24U U28C U38A G40A C46G] | 0.01
54 | GGCAGAGCUCAACACAGAGUGGCCAAGUGGCUAUGGCUAGACUGCC [C18A A24C G33A] | 0.04
55 | GGCAGAGCUCAACACAGAGUGGCAAAGUGGCUGUGGCUAGUAUGCC [C18A A41U C42A] | 0.02
56 | GGCAGAGCUCAACACAGAGUGGCUAAGUGGCUGUGGGUAGACUGAC [C18A A24U C37G C45A] | 0.01
